Source: the supplement of paper PMC4604168 (melanoma cell lines)
This is one part of the list. Repeats are few or missing, and single values can be far off.

Tests used:
Assay in all cases: cell count relative to DMSO control; melanoma cells; higher = more viable cells
Conditions in all cases: library dose: low library concentration; 72 h
MZ2-MEL = tested on: MZ2-MEL
MeWo = tested on: MeWo
RPMI7951 = tested on: RPMI7951
RVH-421 = tested on: RVH-421
SkMel28 = tested on: SkMel28
SkMel2 = tested on: SkMel2
SkMel30 = tested on: SkMel30
SkMel5 = tested on: SkMel5
UACC257 = tested on: UACC257
UACC62 = tested on: UACC62
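Also: cell number obtained by counting DAPI-stained nuclei in high-throughput microscope images with image analysis software, screen run in 1,536-well plates.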

| Compound | cell count (MZ2-MEL) [%] | cell count (MeWo) [%] | cell count (RPMI7951) [%] | cell count (RVH-421) [%] | cell count (SkMel28) [%] | cell count (SkMel2) [%] | cell count (SkMel30) [%] | cell count (SkMel5) [%] | cell count (UACC257) [%] | cell count (UACC62) [%] |
| --- | --- | --- | --- | --- | --- | --- | --- | --- | --- | --- |
| Cc1cn(-c2cc(NC(=O)c3ccc(C)c(Nc4nccc(-c5cccnc5)n4)c3)cc(C(F)(F)F)c2)cn1 [nilotinib] + Cc1cc(N2CCOCC2)cc2[nH]c(-c3c(NC[C@@H](O)c4cccc(Cl)c4)cc[nH]c3=O)nc12 [BMS536924] (first compound 0.2 µM, partner dose 0.2 µM) | 98.3 | 89.8 | 96 | 93 | 106 | 84.9 | 72.2 | 105 | 86.6 | 98.5 |
| Cn1c(=O)n(-c2ccc(C(C)(C)C#N)cc2)c2c3cc(-c4cnc5ccccc5c4)ccc3ncc21 + COc1ccc2c(c1)CCC1C2CCC2(C)C(NCCCCCCN3C(=O)C=CC3=O)CCC12 [U73122] (first compound 0.004 µM, partner dose 0.4 µM) | 106 | 88.7 | 67.8 | 109 | 90.5 | 88.6 | 78.4 | 92.5 | 102 | 93.1 |
| Cc1cc(Nc2cc(N3CCN(C)CC3)nc(/C=C/c3ccccc3)n2)n[nH]1 + O=C1NC(=O)/C(=C/c2ccc(-c3ccc(F)cc3O)o2)S1 [AS252424] (first compound 0.04 µM, partner dose 1 µM) | 100 | 87.1 | 78.7 | 92.6 | 90.4 | 92.4 | 87.3 | 103 | 69.1 | 98.1 |
| CC(C)C[C@H](NC(=O)[C@H](Cc1ccccc1)NC(=O)c1cnccn1)B(O)O [Bortezomib] + N#Cc1c(O)c2c(-c3ccc(-c4ccccc4O)cc3)csc2[nH]c1=O [A769662] (first compound 0.001 µM, partner dose 2 µM) | 82.1 | 98.6 | 78.3 | 54 | 90.4 | 104 | 84.8 | 96.3 | 66.5 | 77.5 |
| Cc1cn(-c2cc(NC(=O)c3ccc(C)c(Nc4nccc(-c5cccnc5)n4)c3)cc(C(F)(F)F)c2)cn1 [nilotinib] + Cn1nnc2c(C(N)=O)ncn2c1=O [temozolomide] (first compound 0.2 µM, partner dose 2 µM) | 89.8 | 110 | 78.7 | 96.6 | 90.6 | 99.3 | 102 | – | – | 79.9 |
| Cc1cn(-c2cc(NC(=O)c3ccc(C)c(Nc4nccc(-c5cccnc5)n4)c3)cc(C(F)(F)F)c2)cn1 [nilotinib] + CCN(CC)CCCCNc1ncc2cc(-c3cc(OC)cc(OC)c3)c(NC(=O)NC(C)(C)C)nc2n1 [PD173074] (first compound 0.2 µM, partner dose 0.1 µM) | 105 | 99.1 | 98 | 99.1 | 88.7 | 99.5 | 101 | 98.2 | 96.2 | 104 |
| Cn1c(=O)n(-c2ccc(C(C)(C)C#N)cc2)c2c3cc(-c4cnc5ccccc5c4)ccc3ncc21 + COCC[n+]1c2c(n(Cc3cnccn3)c1C)C(=O)c1ccccc1C2=O [YM155] (first compound 0.004 µM, partner dose 0.0004 µM) | 66 | 77.3 | 82.1 | 99.7 | 68.5 | 76.7 | 76.4 | – | – | 90.2 |
| COc1ccc(C2=N[C@@H](c3ccc(Cl)cc3)[C@@H](c3ccc(Cl)cc3)N2C(=O)N2CCNC(=O)C2)c(OC(C)C)c1 [Nutlin-3] + O=C(Nc1cccc(Cl)c1)Nc1ncc(CCNc2ncnc3ccsc23)s1 [SNS314] (first compound 0.1 µM, partner dose 0.0008 µM) | 104 | 108 | 113 | 91.1 | 87.8 | 93.6 | 112 | 111 | 54.3 | 84.9 |
| CC(C)C[C@H](NC(=O)[C@H](Cc1ccccc1)NC(=O)c1cnccn1)B(O)O [Bortezomib] + O=C(O)C(=O)Nc1sc2c(c1C(=O)O)CCNC2 [TCS401] (first compound 0.001 µM, partner dose 1.66667 µM) | 94.2 | 98.8 | 94.3 | 81.5 | 102 | 95.3 | 86.4 | 102 | 101 | 83.6 |
| Cn1c(=O)n(-c2ccc(C(C)(C)C#N)cc2)c2c3cc(-c4cnc5ccccc5c4)ccc3ncc21 + Cn1c(Nc2ccc(C(F)(F)F)cc2)nc2cc(Oc3ccnc(-c4ncc(C(F)(F)F)[nH]4)c3)ccc21 [CHIR265] (first compound 0.004 µM, partner dose 0.08 µM) | 67.2 | 59 | 45.8 | 62.5 | 65.5 | 64.3 | 44.7 | – | – | 46.3 |
| CC(C)C[C@H](NC(=O)[C@H](Cc1ccccc1)NC(=O)c1cnccn1)B(O)O [Bortezomib] + C[C@]1(c2nc3c(C(N)=O)cccc3[nH]2)CCCN1 [Veliparib] (first compound 0.001 µM, partner dose 1.4 µM) | 86.9 | 86.1 | 86.8 | 79.4 | 108 | 93.2 | 81.6 | – | – | 67.8 |
| Cn1c(=O)n(-c2ccc(C(C)(C)C#N)cc2)c2c3cc(-c4cnc5ccccc5c4)ccc3ncc21 + COc1ccc(Cl)c(Nc2nc3ccccc3nc2NS(=O)(=O)c2cccc(NC(=O)C(C)(C)N)c2)c1 [XL147] (first compound 0.004 µM, partner dose 0.8 µM) | 92.5 | 79.6 | 90.1 | 86.2 | 74.5 | 89.9 | 91 | – | – | 88.9 |
| Cc1cn(-c2cc(NC(=O)c3ccc(C)c(Nc4nccc(-c5cccnc5)n4)c3)cc(C(F)(F)F)c2)cn1 [nilotinib] + COc1ccc2c(c1)CCC1C2CCC2(C)C(NCCCCCCN3C(=O)C=CC3=O)CCC12 [U73122] (first compound 0.2 µM, partner dose 0.4 µM) | 89 | 115 | 76.4 | 93.6 | 116 | 90.7 | 87.1 | 122 | 106 | 96.5 |
| Cc1cc(Nc2cc(N3CCN(C)CC3)nc(/C=C/c3ccccc3)n2)n[nH]1 + O=C(Nc1ccccc1)c1cc([N+](=O)[O-])ccc1Cl [GW9662] (first compound 0.04 µM, partner dose 2 µM) | 91.8 | 89.3 | 90.4 | 123 | 96.3 | 96.8 | 90.4 | 97.2 | 123 | 72 |
| CC(C)C[C@H](NC(=O)[C@H](Cc1ccccc1)NC(=O)c1cnccn1)B(O)O [Bortezomib] + Oc1nc(-c2ccc(C(F)(F)F)cc2)nc2c1CSCC2 [XAV939] (first compound 0.001 µM, partner dose 2 µM) | 99.5 | 111 | 85.2 | 76.9 | 92.9 | 106 | 105 | 94.2 | 104 | 93.9 |
| COc1ccc(C2=N[C@@H](c3ccc(Cl)cc3)[C@@H](c3ccc(Cl)cc3)N2C(=O)N2CCNC(=O)C2)c(OC(C)C)c1 [Nutlin-3] + O=C(O)[C@@H]1[O][Sb](=[O])([O][Sb]2(=[O])[O][C@H]([C@H](O)CO)[C@H](O)[C@H](C(=O)O)[O]2)[O][C@H]([C@H](O)CO)[C@@H]1O [stibogluconate] (first compound 0.1 µM, partner dose 2 µM) | 90.1 | 96.6 | 91.1 | 76.4 | 112 | 100 | 89.1 | – | – | 79.8 |
| Cn1c(=O)n(-c2ccc(C(C)(C)C#N)cc2)c2c3cc(-c4cnc5ccccc5c4)ccc3ncc21 + Nc1ccn([C@@H]2O[C@H](CO)[C@@H](O)C2(F)F)c(=O)n1 [gemcitabine] (first compound 0.004 µM, partner dose 0.0004 µM) | 95.9 | 80.2 | 84.8 | 87.7 | 81.2 | 93.4 | 80.9 | – | – | 80.1 |
| COc1ccc(C2=N[C@@H](c3ccc(Cl)cc3)[C@@H](c3ccc(Cl)cc3)N2C(=O)N2CCNC(=O)C2)c(OC(C)C)c1 [Nutlin-3] + NC1(c2ccc(-c3nc4ccn5c(=O)[nH]nc5c4cc3-c3ccccc3)cc2)CCC1 [MK2206] (first compound 0.1 µM, partner dose 0.4 µM) | 91.9 | 98 | 104 | 91.8 | 87.2 | 89.1 | 112 | – | – | 86.6 |
| COc1ccc(C2=N[C@@H](c3ccc(Cl)cc3)[C@@H](c3ccc(Cl)cc3)N2C(=O)N2CCNC(=O)C2)c(OC(C)C)c1 [Nutlin-3] + Cn1nnc2c(C(N)=O)ncn2c1=O [temozolomide] (first compound 0.1 µM, partner dose 2 µM) | 106 | 90.3 | 87.3 | 138 | 77 | 108 | 99.4 | – | – | 66.8 |
| Cn1c(=O)n(-c2ccc(C(C)(C)C#N)cc2)c2c3cc(-c4cnc5ccccc5c4)ccc3ncc21 + OCc1c[nH]c2ccccc12 [Indole-3-carbinol] (first compound 0.004 µM, partner dose 0.8 µM) | 99.9 | 94.1 | 89.3 | 105 | 88.5 | 87.6 | 102 | – | – | 92.1 |
